Test results: US20200002432A1, “ANTI-CD98 ANTIBODIES AND ANTIBODY DRUG CONJUGATES” (AbbVie Inc., priority 2016, published 2020)
Positions count from the first letter of the chain named.

B1: CD98 (CL-huAb102)-ZT (conjugate)
heavy: EVQLVESGGGLVQPGGSLRLSCATSGFTFIDYYMSWVRQAPGKGLEWLGFIRNKANRYTTEYSASVKGRFTISRDNSKSILYLQMNSLKTEDTAVYYCTRDRPAWFVYWGQGTLVTVSSASTKGPSVFPLAPSSKSTSGGTAALGCLVKDYFPEPVTVSWNSGALTSGVHTFPAVLQSSGLYSLSSVVTVPSSSLGTQTYICNVNHKPSNTKVDKKV[skipping human IgG1 Fc with changes]
light: DIVMTQTPLSLPVTPGEPASISCKSSQSLLYSSNQKNYLAWYLQKPGQSPQLLIYWASTRESGVPDRFSGSGSGTDFTLKISRVEAEDVGVYYCQQYYSYPYTFGGGTKVEIKRTVAAPSVFIFPPSDEQLKSGTASVVCLLNNFYPREAKVQWKVDNALQSGNSQESVTEQDSKDSTYSLSSTLTLSKADYEKHKVYACEVTHQGLSSPVTKSFNRGEC
B2: CD98 (CL-huAb102)-SE (conjugate)
heavy: EVQLVESGGGLVQPGGSLRLSCATSGFTFIDYYMSWVRQAPGKGLEWLGFIRNKANRYTTEYSASVKGRFTISRDNSKSILYLQMNSLKTEDTAVYYCTRDRPAWFVYWGQGTLVTVSSASTKGPSVFPLAPSSKSTSGGTAALGCLVKDYFPEPVTVSWNSGALTSGVHTFPAVLQSSGLYSLSSVVTVPSSSLGTQTYICNVNHKPSNTKVDKKV[skipping human IgG1 Fc with changes]
light: B1 light
B3: CD98 (CL-huAb104)-ZZ (conjugate)
heavy: EVQLVESGGGLVQPGGSLRLSCATSGFTFIDYYMSWVRQAPGKGLEWLGFIRNKAYGYTTEYSASVKGRFTISRDNSKSILYLQMNSLKTEDTAVYYCTRDRPAWFVYWGQGTLVTVSSASTKGPSVFPLAPSSKSTSGGTAALGCLVKDYFPEPVTVSWNSGALTSGVHTFPAVLQSSGLYSLSSVVTVPSSSLGTQTYICNVNHKPSNTKVDKKV[skipping human IgG1 Fc with changes]
light: B1 light
B4: CD98 (CL-huAb104)-ZT (conjugate)
heavy: EVQLVESGGGLVQPGGSLRLSCATSGFTFIDYYMSWVRQAPGKGLEWLGFIRNKAYGYTTEYSASVKGRFTISRDNSKSILYLQMNSLKTEDTAVYYCTRDRPAWFVYWGQGTLVTVSSASTKGPSVFPLAPSSKSTSGGTAALGCLVKDYFPEPVTVSWNSGALTSGVHTFPAVLQSSGLYSLSSVVTVPSSSLGTQTYICNVNHKPSNTKVDKKV[skipping human IgG1 Fc with changes]
light: B1 light
B5: CD98 (CL-huAb108)-ZT (conjugate)
heavy: EVQLVQSGAEVKKPGASVKVSCKASGFTFSDYTMAWVRQAPGQGLEWVATIIYSGRGTYYRDAVKGRFTITRDNSTSTLYLELSSLRSEDTAVYYCARQSDDTYYYWGYFDYWGQGTMVTVSSASTKGPSVFPLAPSSKSTSGGTAALGCLVKDYFPEPVTVSWNSGALTSGVHTFPAVLQSSGLYSLSSVVTVPSSSLGTQTYICNVNHKPSNTKVDKKV[skipping human IgG1 Fc with changes]
light: B1 light with S22N, Y31F, S33G, E61Q, V91I, S99D, Y100V, G106Q, V110L
B6: CD98 (CL-huAb104)-YG (conjugate)
heavy: EVQLVESGGGLVQPGGSLRLSCATSGFTFIDYYMSWVRQAPGKGLEWLGFIRNKAYGYTTEYSASVKGRFTISRDNSKSILYLQMNSLKTEDTAVYYCTRDRPAWFVYWGQGTLVTVSSASTKGPSVFPLAPSSKSTSGGTAALGCLVKDYFPEPVTVSWNSGALTSGVHTFPAVLQSSGLYSLSSVVTVPSSSLGTQTYICNVNHKPSNTKVDKKV[skipping human IgG1 Fc with changes]
light: B1 light
B7: CD98 (CL-huAb104)-SR (conjugate)
heavy: EVQLVESGGGLVQPGGSLRLSCATSGFTFIDYYMSWVRQAPGKGLEWLGFIRNKAYGYTTEYSASVKGRFTISRDNSKSILYLQMNSLKTEDTAVYYCTRDRPAWFVYWGQGTLVTVSSASTKGPSVFPLAPSSKSTSGGTAALGCLVKDYFPEPVTVSWNSGALTSGVHTFPAVLQSSGLYSLSSVVTVPSSSLGTQTYICNVNHKPSNTKVDKKV[skipping human IgG1 Fc with changes]
light: B1 light
B8: CD98 (CL-huAb102)-YG (conjugate)
heavy: EVQLVESGGGLVQPGGSLRLSCATSGFTFIDYYMSWVRQAPGKGLEWLGFIRNKANRYTTEYSASVKGRFTISRDNSKSILYLQMNSLKTEDTAVYYCTRDRPAWFVYWGQGTLVTVSSASTKGPSVFPLAPSSKSTSGGTAALGCLVKDYFPEPVTVSWNSGALTSGVHTFPAVLQSSGLYSLSSVVTVPSSSLGTQTYICNVNHKPSNTKVDKKV[skipping human IgG1 Fc with changes]
light: B1 light
B9: CD98 (CL-huAb110)-ZZ (conjugate)
heavy: EVQLVQSGAEVKKPGASVKVSCKASGFTFSDYTMAWVRQAPGQGLEWVATIIYDARGTYYRDAVKGRFTITRDNSTSTLYLELSSLRSEDTAVYYCARQSDDTYYYWGYFDYWGQGTMVTVSSASTKGPSVFPLAPSSKSTSGGTAALGCLVKDYFPEPVTVSWNSGALTSGVHTFPAVLQSSGLYSLSSVVTVPSSSLGTQTYICNVNHKPSNTKVDKKV[skipping human IgG1 Fc with changes]
light: B1 light with S22N, Y31F, S33G, E61Q, V91I, Y100S, G106Q, V110L
B10: CD98 (CL-huAb108)-XW (conjugate)
heavy: EVQLVQSGAEVKKPGASVKVSCKASGFTFSDYTMAWVRQAPGQGLEWVATIIYSGRGTYYRDAVKGRFTITRDNSTSTLYLELSSLRSEDTAVYYCARQSDDTYYYWGYFDYWGQGTMVTVSSASTKGPSVFPLAPSSKSTSGGTAALGCLVKDYFPEPVTVSWNSGALTSGVHTFPAVLQSSGLYSLSSVVTVPSSSLGTQTYICNVNHKPSNTKVDKKV[skipping human IgG1 Fc with changes]
light: B1 light with S22N, Y31F, S33G, E61Q, V91I, S99D, Y100V, G106Q, V110L
B11: CD98 (CL-huAb104)-SE (conjugate)
heavy: EVQLVESGGGLVQPGGSLRLSCATSGFTFIDYYMSWVRQAPGKGLEWLGFIRNKAYGYTTEYSASVKGRFTISRDNSKSILYLQMNSLKTEDTAVYYCTRDRPAWFVYWGQGTLVTVSSASTKGPSVFPLAPSSKSTSGGTAALGCLVKDYFPEPVTVSWNSGALTSGVHTFPAVLQSSGLYSLSSVVTVPSSSLGTQTYICNVNHKPSNTKVDKKV[skipping human IgG1 Fc with changes]
light: B1 light
B12: CD98 (CL-huAb110)-ZT (conjugate)
heavy: EVQLVQSGAEVKKPGASVKVSCKASGFTFSDYTMAWVRQAPGQGLEWVATIIYDARGTYYRDAVKGRFTITRDNSTSTLYLELSSLRSEDTAVYYCARQSDDTYYYWGYFDYWGQGTMVTVSSASTKGPSVFPLAPSSKSTSGGTAALGCLVKDYFPEPVTVSWNSGALTSGVHTFPAVLQSSGLYSLSSVVTVPSSSLGTQTYICNVNHKPSNTKVDKKV[skipping human IgG1 Fc with changes]
light: B1 light with S22N, Y31F, S33G, E61Q, V91I, Y100S, G106Q, V110L
B13: CD98 (CL-huAb108-ZZ (conjugate)
heavy: EVQLVQSGAEVKKPGASVKVSCKASGFTFSDYTMAWVRQAPGQGLEWVATIIYSGRGTYYRDAVKGRFTITRDNSTSTLYLELSSLRSEDTAVYYCARQSDDTYYYWGYFDYWGQGTMVTVSSASTKGPSVFPLAPSSKSTSGGTAALGCLVKDYFPEPVTVSWNSGALTSGVHTFPAVLQSSGLYSLSSVVTVPSSSLGTQTYICNVNHKPSNTKVDKKV[skipping human IgG1 Fc with changes]
light: B1 light with S22N, Y31F, S33G, E61Q, V91I, S99D, Y100V, G106Q, V110L
B14: CD98 (CL-huAb102)-ZZ (conjugate)
heavy: EVQLVESGGGLVQPGGSLRLSCATSGFTFIDYYMSWVRQAPGKGLEWLGFIRNKANRYTTEYSASVKGRFTISRDNSKSILYLQMNSLKTEDTAVYYCTRDRPAWFVYWGQGTLVTVSSASTKGPSVFPLAPSSKSTSGGTAALGCLVKDYFPEPVTVSWNSGALTSGVHTFPAVLQSSGLYSLSSVVTVPSSSLGTQTYICNVNHKPSNTKVDKKV[skipping human IgG1 Fc with changes]
light: B1 light
B15: CD98 (CL-huAb110)-SR (conjugate)
heavy: EVQLVQSGAEVKKPGASVKVSCKASGFTFSDYTMAWVRQAPGQGLEWVATIIYDARGTYYRDAVKGRFTITRDNSTSTLYLELSSLRSEDTAVYYCARQSDDTYYYWGYFDYWGQGTMVTVSSASTKGPSVFPLAPSSKSTSGGTAALGCLVKDYFPEPVTVSWNSGALTSGVHTFPAVLQSSGLYSLSSVVTVPSSSLGTQTYICNVNHKPSNTKVDKKV[skipping human IgG1 Fc with changes]
light: B1 light with S22N, Y31F, S33G, E61Q, V91I, Y100S, G106Q, V110L
B16: CD98 (CL-huAb104)-XW (conjugate)
heavy: EVQLVESGGGLVQPGGSLRLSCATSGFTFIDYYMSWVRQAPGKGLEWLGFIRNKAYGYTTEYSASVKGRFTISRDNSKSILYLQMNSLKTEDTAVYYCTRDRPAWFVYWGQGTLVTVSSASTKGPSVFPLAPSSKSTSGGTAALGCLVKDYFPEPVTVSWNSGALTSGVHTFPAVLQSSGLYSLSSVVTVPSSSLGTQTYICNVNHKPSNTKVDKKV[skipping human IgG1 Fc with changes]
light: B1 light
B17: CD98 (CL-huAb102)-SR (conjugate)
heavy: EVQLVESGGGLVQPGGSLRLSCATSGFTFIDYYMSWVRQAPGKGLEWLGFIRNKANRYTTEYSASVKGRFTISRDNSKSILYLQMNSLKTEDTAVYYCTRDRPAWFVYWGQGTLVTVSSASTKGPSVFPLAPSSKSTSGGTAALGCLVKDYFPEPVTVSWNSGALTSGVHTFPAVLQSSGLYSLSSVVTVPSSSLGTQTYICNVNHKPSNTKVDKKV[skipping human IgG1 Fc with changes]
light: B1 light
B18: CD98 (CL-huAb110)-SE (conjugate)
heavy: EVQLVQSGAEVKKPGASVKVSCKASGFTFSDYTMAWVRQAPGQGLEWVATIIYDARGTYYRDAVKGRFTITRDNSTSTLYLELSSLRSEDTAVYYCARQSDDTYYYWGYFDYWGQGTMVTVSSASTKGPSVFPLAPSSKSTSGGTAALGCLVKDYFPEPVTVSWNSGALTSGVHTFPAVLQSSGLYSLSSVVTVPSSSLGTQTYICNVNHKPSNTKVDKKV[skipping human IgG1 Fc with changes]
light: B1 light with S22N, Y31F, S33G, E61Q, V91I, Y100S, G106Q, V110L
B19: CD98 (CL-huAb102)-XW (conjugate)
heavy: EVQLVESGGGLVQPGGSLRLSCATSGFTFIDYYMSWVRQAPGKGLEWLGFIRNKANRYTTEYSASVKGRFTISRDNSKSILYLQMNSLKTEDTAVYYCTRDRPAWFVYWGQGTLVTVSSASTKGPSVFPLAPSSKSTSGGTAALGCLVKDYFPEPVTVSWNSGALTSGVHTFPAVLQSSGLYSLSSVVTVPSSSLGTQTYICNVNHKPSNTKVDKKV[skipping human IgG1 Fc with changes]
light: B1 light

Test system: Molt-4 human acute lymphoblastic leukemia cell line
Experiment: Growth inhibition assay, ATPlite 1 step, 72 hours
Assay type: cell-based
Settings: Molt-4 cells; for % Cell Viability at 50 nM: 50 nM ADC; for IC50: ATPlite 1 step, read-out: Molt4 IC50
Description: The activities of these ADCs were tested in growth inhibition assays in the Molt-4 human acute lymphoblastic leukemia cell line. Briefly, 5000 Molt-4 cells per well in 96-well plates were treated with ADCs in serial dilution for 72 hours. The number of viable cells was determined by the ATPlite 1 step reagent (PerkinElmer 6016739) as instructed by the manufacturer. Data was analyzed using Graphpad Prism software and IC50 values were reported as the concentration of ADC to achieve 50% inhibition of cell proliferation (Table 27).

Row | Molecule | % Cell Viability at 50 nM [%] | IC50 [nM]
1 | B1 | 3.4 | 0.04
2 | B2 | 19.7 | 0.107
3 | B3 | 6.5 | 0.061
4 | B4 | 3.3 | 0.042
5 | B5 | 4.5 | 0.144
6 | B6 | 25.3 | 2.67
7 | B7 | – | 0.045
8 | B8 | 31.9 | 1.21
9 | B9 | 4.3 | 0.252
10 | B10 | 20.9 | 0.281
11 | B11 | 17.1 | 0.149
12 | B12 | 3.5 | 0.156
13 | B13 | 5.8 | 0.199
14 | B14 | 6.3 | 0.072
15 | B15 | 11.0 | 0.332
16 | B16 | 31.1 | 0.102
17 | B17 | 12.7 | 0.03
18 | B18 | 5.7 | 0.502
19 | B19 | 32.0 | 0.074
